The values that follow come from the supplement of paper PMC4604168 (melanoma cell lines).

What all share (test): cell count relative to DMSO control; melanoma cells; higher = more viable cells
Common to all, as to details: library dose: low library concentration; 72 h

Test [1] relates to WM115.
Test [2] relates to WM1716.
The subject of test [3] is WM1745.
For test [4], the system named is WM3526.
For test [5], the system named is WM3619.
Test [6] deals with WM451Lu.

The other results are listed elsewhere or left out. Repeats are few or missing, and single values can be far off.
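Further: cell number obtained by counting DAPI-stained nuclei in high-throughput microscope images with image analysis software, screen run in 1,536-well plates.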

For the compound `CCN(CC)CCNC(=O)c1c(C)[nH]c(/C=C2\C(=O)Nc3ccc(F)cc32)c1C` [sunitinib] + Cc1cc(SCc2sc(-c3ccc(C(F)(F)F)c(F)c3)nc2C)ccc1OCC(=O)O [GW0742] (first compound 0.4 µM, partner dose 2 µM), the cell count in test [1] was 108%; in test [2] it was 148%; in test [3] it was 94%; in test [4], 80.1%; in test [5], 126%; in test [6], 94.8%.
Turning to `N#CC[C@H](C1CCCC1)n1cc(-c2ncnc3[nH]ccc23)cn1` [ruxolitinib] + C/C(O)=C(\C#N)C(=O)Nc1cc(Br)ccc1Br [LFM-A13] (first compound 1 µM, partner dose 2 µM), the cell count in test [1] was found to be 102%; in test [2] it was 109%; in test [3], 93.4%; in test [4] it was 107%; in test [5] it was 85%; in test [6], 106%.
As for `Cc1cc(Nc2cc(N3CCN(C)CC3)nc(/C=C/c3ccccc3)n2)n[nH]1` + Cc1cc(SCc2sc(-c3ccc(C(F)(F)F)c(F)c3)nc2C)ccc1OCC(=O)O [GW0742] (first compound 0.04 µM, partner dose 2 µM), the cell count in test [1] was determined as 98.9%; in test [2] it was 115%; in test [3], 94.3%; in test [4] it was 123%; in test [5], 88.1%; in test [6], 108%.
Regarding `NC(=O)Nc1cc(-c2cccc(F)c2)sc1C(=O)N[C@H]1CCCNC1` + C/C(O)=C(\C#N)C(=O)Nc1cc(Br)ccc1Br [LFM-A13] (first compound 0.02 µM, partner dose 2 µM), the cell count turned out to be 88.8% in test [1]; 89.2% in test [2]; 94.8% in test [3]; 74.7% in test [4]; 50% in test [5]; 114% in test [6].
On to `N#CC[C@H](C1CCCC1)n1cc(-c2ncnc3[nH]ccc23)cn1` [ruxolitinib] + Cn1cc(C2=C(c3cn(C4CCN(Cc5ccccn5)CC4)c4ccccc34)C(=O)NC2=O)c2ccccc21 [Enzastaurin] (first compound 1 µM, partner dose 0.8 µM), for which the cell count in test [1] came to 106%; in test [2], 114%; in test [3], 90%; in test [4] it was 136%; in test [5], 112%; in test [6], 102%.
For `Cc1cc(SCc2sc(-c3ccc(C(F)(F)F)c(F)c3)nc2C)ccc1OCC(=O)O` + Cn1cc(/C=C2\C(=O)Nc3cccnc32)c2ccccc21 [GW441756] (first compound 2 µM, partner dose 0.4 µM), the cell count in test [1] was 103%; in test [2] it was 107%; in test [3], 88.7%; in test [4], 90.4%; in test [5], 108%; in test [6], 118%.
Take `O=C(O)[C@@H]1[O][Sb](=[O])([O][Sb]2(=[O])[O][C@H]([C@H](O)CO)[C@H](O)[C@H](C(=O)O)[O]2)[O][C@H]([C@H](O)CO)[C@@H]1O` (stereo partly drawn) [stibogluconate] + C[As](C)SC[C@H](NC(=O)CC[C@H](N)C(=O)O)C(=O)NCC(=O)O [Darinaparsin] (first compound 2 µM, partner dose 0.4 µM): the cell count in test [1] came out at 102%; in test [2], 100%; in test [3] it was 109%; in test [4], 101%; in test [5], 93%; in test [6], 114%.
As for `O=c1[nH]nc(Sc2ncc([N+](=O)[O-])s2)n1-c1ccc2c(c1)OCCO2` + C/C(O)=C(\C#N)C(=O)Nc1cc(Br)ccc1Br [LFM-A13] (first compound 0.2 µM, partner dose 2 µM), the cell count was found to be 96.9% in test [1]; 101% in test [2]; 103% in test [3]; 96.6% in test [4]; 97.6% in test [5]; 103% in test [6].
For the compound `COc1cc2c(Oc3ccc4[nH]c(C)cc4c3F)ncnc2cc1OCCCN1CCCC1` [cediranib] + C/C(O)=C(\C#N)C(=O)Nc1cc(Br)ccc1Br [LFM-A13] (first compound 0.4 µM, partner dose 2 µM), the cell count stood at 114% in test [1]; 102% in test [2]; 99.1% in test [3]; 76.5% in test [4]; 117% in test [5]; 98.3% in test [6].
As to `COc1ccc(C2=N[C@@H](c3ccc(Cl)cc3)[C@@H](c3ccc(Cl)cc3)N2C(=O)N2CCNC(=O)C2)c(OC(C)C)c1` [Nutlin-3] + N.N.[Cl][Pt][Cl] [cisplatin] (first compound 0.1 µM, partner dose 1.6 µM), the cell count worked out at 91.4% in test [1]; 101% in test [2]; 102% in test [3]; 103% in test [4]; 96.3% in test [5]; 90.1% in test [6].
As to `N#CC[C@H](C1CCCC1)n1cc(-c2ncnc3[nH]ccc23)cn1` [ruxolitinib] + C[C@]12O[C@H](C[C@]1(O)CO)n1c3ccccc3c3c4c(c5c6ccccc6n2c5c31)CNC4=O [Lestaurtinib] (first compound 1 µM, partner dose 0.004 µM), the cell count in test [1] stood at 106%; in test [2], 102%; in test [3], 92.4%; in test [4] it was 81.8%; in test [5] it was 93.6%; in test [6], 101%.
On to `NC(=O)Nc1cc(-c2cccc(F)c2)sc1C(=O)N[C@H]1CCCNC1` + O=C(Oc1ccc([N+](=O)[O-])cc1)N1CCC(C(O)(c2ccc3c(c2)OCO3)c2ccc3c(c2)OCO3)CC1 [JZL184] (first compound 0.02 µM, partner dose 1 µM), for which the cell count in test [1] came to 98.4%; in test [2], 96.9%; in test [3] it was 103%; in test [4], 91.6%; in test [5], 82.6%; in test [6], 76.7%.
In the case of `Cn1c(=O)n(-c2ccc(C(C)(C)C#N)cc2)c2c3cc(-c4cnc5ccccc5c4)ccc3ncc21` + Cc1cc(SCc2sc(-c3ccc(C(F)(F)F)c(F)c3)nc2C)ccc1OCC(=O)O [GW0742] (first compound 0.004 µM, partner dose 2 µM), the cell count in test [1] was 95.9%; in test [2], 106%; in test [3] it was 104%; in test [4], 105%; in test [5], 109%; in test [6], 102%.
